# Data taken from PubChem BioAssay AID686979 (National Center for Advancing Translational Sciences (NCATS), 2013).
# Hit rate of the full screen: of about 420,000 compounds, about 50,000 (12%) were called active. Inconclusive means that the source gave no clear call. Such entries were picked first, then a sample of the others. The call rests on the fitted dose curve; in most records, active means well fitted inhibition curve with a large enough effect; inconclusive means small, poorly fitted or top-dose-only effect; inactive means flat fitted curve, though single readings scatter. Potencies of inconclusive entries are left out as doubtful fits.
# Assay: qHTS for Inhibitors of human tyrosyl-DNA phosphodiesterase 1 (TDP1): qHTS in cells in presence of CPT; further: nearly all actives have a fitted effect of over 55% in size
# Settings: chicken DT40 Tdp1-/-;hTDP1 cells + 20 nM CPT, ATP luminescence, 48 h; activity change, negative = growth inhibition: at 46.2 µM (top of the series)
# Summary of the method: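 Chicken DT40 Tdp1-/- cells stably complemented with human TDP1 were seeded at 400 cells/well in medium containing 20 nM camptothecin, exposed to pin-transferred compounds, and grown at 37 °C for at least 48 hr. Viability was read as ATP luminescence.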
# On the % scale 0 is the no-effect control and ±100 the full control effect; potency means the concentration at half of the fitted maximal effect; tags describe the fitted curve by direction and shape.
SMILES,Potency,"activity change, negative = growth inhibition"
CC(C)c1ccc(C2(C)NC(=O)N(CC(=O)NC3CCCC(C)C3C)C2=O)cc1 (stereo not drawn),"inconclusive [inhibitor, single point]",–
C=C1CCN([C@H](C(=O)OCc2ccc(C)cc2)C(C)C)S(=O)(=O)c2ccccc21,"inconclusive [inhibitor, single point]",–
COc1ccc(-c2csc(NC(=O)Cc3ccccc3)n2)cc1OC,"inconclusive [inhibitor, single point]",–
CN(Cc1cnn(C)c1)C(=O)c1sc2cccc(Cl)c2c1Cl,"inconclusive [inhibitor, single point]",–
COc1ccc(C(CCN)Cc2ccccc2)cc1 (stereo not drawn),active: 29.1 µM,–
CCc1ccc(C(=O)COC(=O)CNC(=O)c2ccc(Br)o2)cc1,"inconclusive [inhibitor, single point]",–
CC(NC(=O)Nc1ccc(Br)cc1)C(C)(C)C (stereo not drawn),"inconclusive [inhibitor, single point]",–
O=C(c1ccc(Cl)c([N+](=O)[O-])c1)N(Cc1cccc(Cl)c1)C1CCS(=O)(=O)C1 (stereo not drawn),"inconclusive [inhibitor, single point]",–
CCOC(=O)N1CCN(C(=O)c2ccc(N(Cc3ccccc3)S(C)(=O)=O)cc2)CC1,–,inactive: -20.6%
N#CCCn1cc(C(=O)Nc2ccc(C(=O)O)cc2)c(-c2cccs2)n1,"inconclusive [inhibitor, single point]",–
CC(C)Oc1ccc(F)cc1-c1cc(C(=O)NCc2cccs2)[nH]n1,"inconclusive [inhibitor, single point]",–
Cc1cc(N2CCC(C)CC2)nc2ccc(NC(=O)CCC(=O)N3CCN(c4cccc(C(F)(F)F)c4)CC3)cc12,active: 3.26 µM,–
CN(CC(=O)Nc1ccc(N2CCOCC2)cc1)C(=O)c1cc(F)c(F)cc1Cl,–,inactive: 8.39%
COc1ccc(CCNC(=O)CCc2cn(C)c3ccccc23)c(OC)c1,"inconclusive [inhibitor, single point]",–
Cc1ccc(S(=O)(=O)N(C)c2ccc(OCC(=O)Nc3nc(-c4ccccc4)cs3)cc2)cc1,active: 16.4 µM,–
C=CCc1cccc(CNc2c(C)n(C)n(-c3ccccc3)c2=O)c1O,"inconclusive [inhibitor, single point]",–
CCn1c(=O)cc(SCC(=O)N(C)Cc2ccccc2)c2ccccc21,"inconclusive [inhibitor, single point]",–
CCOc1cc(/C=C/C(=O)OCC(=O)NCc2ccco2)cc(Cl)c1OC,"inconclusive [inhibitor, partial curve]",–
COc1cc(Cl)c(C)cc1NC(=O)CN1c2ccccc2S(=O)(=O)c2ccccc21,"inconclusive [inhibitor, single point]",–
O=S(=O)(Nc1ccc(-c2ccc(N3CCCC3)nn2)cc1)c1ccc(Br)cc1,"inconclusive [inhibitor, single point]",–
CCC(=O)Nc1nc(-c2cc([N+](=O)[O-])cs2)cs1,"inconclusive [inhibitor, full curve]",–

SMILES,Potency,"activity change, negative = growth inhibition"
CC(O)c1ccc(OCCN(C)c2ccccn2)cc1 (stereo not drawn),–,inactive: 4.7%
CSc1nnc(-c2cc[n+](C)cc2)n1CCO,–,inactive: -1.49%
Cc1occc1-c1nnc(SCC(=O)NCCc2ccccc2)n1Cc1ccccc1,"inconclusive [inhibitor, single point]",–
COC(=O)C1CCCN1S(=O)(=O)c1ccc2ccccc2c1 (stereo not drawn),"inconclusive [inhibitor, single point]",–
O=C(NCc1nc2ccccc2[nH]1)C1=C[C@@H](C2CCCCC2)C[C@@H](OCCCCO)O1,active: 20.6 µM,–
COc1cc2cc(CN(CCN3CCCC3)C(=O)Nc3ccccc3Cl)c(=O)[nH]c2cc1OC,"inconclusive [inhibitor, single point]",–
Fc1ccc(Nc2ncnc3sccc23)cc1,–,inactive: -2.29%
Cc1ccc(C(=O)N/C(=C\c2cccs2)c2nc3ccccc3[nH]2)cc1,active: 16.4 µM,–
Cc1cccnc1N(C(=O)Nc1cccc(Cl)c1)C1=NCC(C)(C)S1,–,inconclusive: -23.1% [inhibitor]
O=C(N/N=C/c1ccccn1)c1cc(-c2ccccc2)nc2ccccc12,"inconclusive [inhibitor, single point]",–
Cc1cc(F)ccc1NC(=O)c1sc2nc(-c3cccs3)ccc2c1N,"inconclusive [inhibitor, single point]",–
CC(C)NC(=O)N(C)C[C@H]1Oc2c(NC(=O)c3ccc(-c4nccs4)cc3)cccc2C(=O)N([C@@H](C)CO)C[C@H]1C,"inconclusive [inhibitor, single point]",–
CCOC(=O)C(C)Sc1ccc2nnc(-c3ccc(OCC)cc3)n2n1 (stereo not drawn),active: 10 µM,–
Cc1ccc([C@H]2C[C@H](O)[C@@H](n3cc(COC(=O)c4ccccc4)nn3)CN2Cc2cccs2)cc1,active: 20.6 µM,–
CC(C)(C)OC(=O)NCCCCCNC(=O)c1[nH]cnc1C(=O)Nc1nccs1,"inconclusive [inhibitor, partial curve, poor fit]",–
NC(c1csc(NC(=O)Nc2cccc(Cl)c2)n1)c1ccccc1Cl (stereo not drawn),"inconclusive [inhibitor, single point]",–
O=C(/C=C/c1cccc([N+](=O)[O-])c1)Nc1cc(C(=O)O)cc(C(=O)O)c1,"inconclusive [inhibitor, single point]",–
C/C(=N/NC(=O)c1ccc(C)s1)c1cccc(NC(=O)COc2ccc(Cl)cc2Cl)c1,"inconclusive [inhibitor, single point]",–
Cc1nn(C)c2c1c(C(F)(F)F)cc(=O)n2CC(=O)NCc1ccccc1Cl,"inconclusive [inhibitor, single point]",–
COc1cccc(Sc2ccccc2CN(C)C)c1,"inconclusive [inhibitor, single point]",–
COC(=O)/C=C1\S/C(=N/NC(=O)c2ccc(OC)cc2)NC1=O,"inconclusive [inhibitor, single point]",–

SMILES,Potency,"activity change, negative = growth inhibition"
CC(C)C[C@H]1CN(CCCC[C@@H]2CNC(=O)C(=O)N2CC2CCCCC2)C(=O)C(=O)N1CCc1ccc(O)cc1,–,inactive: -6.65%
O=C(/C=C/c1cccc([N+](=O)[O-])c1)NCCSCc1cccc(Cl)c1,"inconclusive [inhibitor, single point]",–
Cc1ccc(NS(=O)(=O)c2ccc3c(c2)NC(=O)CCS3)c(Br)c1,"inconclusive [inhibitor, single point]",–
CCC(C(=O)Nc1ccc(S(=O)(=O)N(C)C2CCN(C)CC2)cc1)c1ccccc1 (stereo not drawn),"inconclusive [inhibitor, single point]",–
Cc1ccc(C(=O)CC2(O)C(=O)N(C)c3ccccc32)s1 (stereo not drawn),"inconclusive [inhibitor, single point]",–
CCOc1ccccc1NC(=O)C(C)Sc1nc2c(c(=O)[nH]1)CCCC2 (stereo not drawn),"inconclusive [inhibitor, partial curve]",–
N#Cc1nc(COc2ccccc2)oc1N1CCN(c2cccc(Cl)c2)CC1,"inconclusive [inhibitor, single point]",–
CCOC(=O)N1CCN(C(=O)CN(C)S(=O)(=O)c2ccc3c(c2)C(C)(C)C(=O)N3C)CC1,–,inactive: 0.691%
Cc1ccc(C(=O)CN2CCC(NC(=O)C3CCCCC3)CC2)cc1,"inconclusive [inhibitor, single point]",–
Cc1ccc(CC(=O)Nc2c(C(=O)N3CCN(c4ccccc4F)CC3)oc3ccccc23)cc1,"inconclusive [inhibitor, single point]",–
CCOC(=O)C1(CC2CCCCO2)CCN(Cc2cc3ccccc3[nH]2)CC1 (stereo not drawn),"inconclusive [inhibitor, single point]",–
CN(c1ccccc1)S(=O)(=O)c1ccc(NC(=O)COc2ccccc2)cc1,"inconclusive [inhibitor, partial curve, poor fit]",–
Cc1onc(-c2ccccc2)c1C(=O)Nc1sc2c(c1C#N)CCC(C)C2 (stereo not drawn),"inconclusive [inhibitor, single point]",–
Clc1cccc(Cc2c(-c3ccco3)nc3c4ccccc4ccn23)c1,"inconclusive [inhibitor, single point]",–
COc1ccccc1NS(=O)(=O)c1cc(C(=O)NCC(c2ccc(F)cc2)N2CCOCC2)ccc1C (stereo not drawn),"inconclusive [inhibitor, single point]",–
CC(=O)N1c2ccc(S(=O)(=O)N3CCC(C(=O)N4CC(C)CC(C)C4)CC3)cc2CC1C (stereo not drawn),active: 20.6 µM,–
CCOc1ccccc1CN1CCCC(c2nc(C)ncc2-c2ccc(F)cc2)C1 (stereo not drawn),"inconclusive [inhibitor, single point]",–
CC1=CC(C)(C)N(C(=O)CSc2nnc(N)s2)c2cc(C)c(C)cc21,"inconclusive [inhibitor, single point]",–
COc1ccc2c(c1OC)C(C1c3c(cc4c(c3OC)OCO4)CCN1C)OC2=O (stereo not drawn),"inconclusive [inhibitor, single point]",–
COc1ccc(-c2cc(C(=O)Nc3c(C)nn(Cc4ccc(F)cc4)c3C)no2)cc1OC,"inconclusive [inhibitor, single point]",–
CNC(=O)c1ccc2nc(-c3ccccc3)c(-c3ccccc3)nc2c1,"inconclusive [inhibitor, full curve, poor fit]",–
